Some of the results follow.
What was measured:
HSkMC = human skeletal muscle cells; experiment: cytotoxicity call (relative viability < 0.9); settings: 10 µM
HepG2 = experiment: cytotoxicity call (relative viability < 0.9); settings: 10 µM
S. aureus RN4220 = experiment: growth inhibition call (relative growth <= 0.2); settings: 50 µM

Structure (SMILES)	cytotoxicity call (HSkMC)	cytotoxicity call (HepG2)	growth inhibition call (S. aureus RN4220)
COc1ccc(S(=O)(=O)Nc2ccc3c(c2)C(=O)N([C@@H](C)CO)C[C@H](C)[C@H](CN(C)Cc2ccc(C(=O)O)cc2)OCCCC[C@H](C)O3)cc1	inactive	inactive	inactive
CCCCC(CC)COc1ccc(-c2nc(-c3ccc(OC)cc3)nc(-c3ccc(OCC(CC)CCCC)cc3O)n2)c(O)c1 (stereo unspecified)	inactive	inactive	inactive
C[C@@H]1CCCCO[C@@H](CN(C)Cc2ccc(Cl)c(Cl)c2)[C@H](C)CN([C@H](C)CO)C(=O)c2cc(NC(=O)Nc3ccc(F)cc3)ccc2O1	inactive	inactive	inactive
CCc1[nH]c(=S)[nH]c(=O)c1C#N	inactive	inactive	inactive
C[C@@H]1CN([C@H](C)CO)C(=O)c2cccc(NC(=O)C3CCOCC3)c2O[C@H]1CN(C)Cc1ccccc1	inactive	inactive	inactive
Cc1ccc(S(=O)(=O)N(C)C[C@H]2Oc3ccc(NC(=O)CCCN(C)C)cc3CC(=O)N([C@@H](C)CO)C[C@@H]2C)cc1	inactive	inactive	inactive
CON	inactive	inactive	inactive
C[C@H](CO)N1C[C@H](C)[C@H](CN(C)S(=O)(=O)c2cn(C)cn2)Oc2ccc(NC(=O)Nc3ccccc3)cc2C1=O	inactive	inactive	inactive
C[C@H]1CN([C@@H](C)CO)C(=O)c2cccc(NC(=O)c3cnccn3)c2O[C@@H]1CN(C)C(=O)NC1CCCCC1	inactive	inactive	inactive
COc1ccccc1-c1ccc2c(c1)O[C@@H](CN(C)C(=O)c1cccnc1)[C@@H](C)CN([C@@H](C)CO)S2(=O)=O	inactive	inactive	inactive
C[C@@H]1CN([C@@H](C)CO)C(=O)c2cc(NC(=O)Nc3ccc(F)cc3)ccc2O[C@@H]1CN(C)Cc1ccc(Cl)c(Cl)c1	active	active	inactive
COCCOC(=O)N1C(=O)[C@@]2(c3cc(C#Cc4ccc(OC)cc4)ccc31)[C@H](C(=O)N1CCc3cc(OC)c(OC)cc3C1)[C@H]1C(=O)O[C@H](c3ccccc3)[C@H](c3ccccc3)N1[C@@H]2c1ccccc1OCCO	inactive	inactive	inactive
NCc1cn(Cc2ccc(Cl)c(Cl)c2)cn1	inactive	inactive	inactive
C[C@@H]1CN([C@H](C)CO)C(=O)c2cccc(NC(=O)C3CCOCC3)c2O[C@@H]1CN(C)S(=O)(=O)c1ccc(Cl)cc1	inactive	inactive	inactive
COc1cccc(S(=O)(=O)N(C)C[C@H]2Oc3ncc(-c4cccc(C(=O)N(C)C)c4)cc3C(=O)N([C@@H](C)CO)C[C@@H]2C)c1	inactive	inactive	inactive
NNC(=O)CCCCCC(=O)NO	inactive	inactive	inactive
Cc1cc(C(=O)Nc2cccc3c2O[C@@H](CN(C)C(=O)Nc2ccccc2)[C@H](C)CN([C@H](C)CO)C3=O)n(C)n1	inactive	inactive	inactive
Cc1noc(C)c1NC(=O)Nc1ccc2c(c1)C(=O)N([C@@H](C)CO)C[C@@H](C)[C@@H](CN(C)C(=O)Nc1cccc3ccccc13)OCCCC[C@@H](C)O2	inactive	inactive	inactive
CCNC(=O)c1cc2c(c(-c3cccc(-c4cccc(F)c4)c3)n1)[C@H](CCO)N([S@@](=O)C(C)(C)C)C2	inactive	active	inactive

Structure (SMILES)	cytotoxicity call (HSkMC)	cytotoxicity call (HepG2)	growth inhibition call (S. aureus RN4220)
O=C(C[C@@H]1C=C[C@@H](NC(=O)c2ccc(F)cc2)[C@@H](CO)O1)NCc1ccncn1	inactive	inactive	inactive
C[C@H](CO)N1C[C@H](C)[C@@H](CN(C)Cc2ccncc2)Oc2ccc(NS(=O)(=O)c3cccs3)cc2CC1=O	inactive	inactive	inactive
COc1ccc(S(=O)(=O)Nc2ccc3c(c2)C(=O)N([C@H](C)CO)C[C@@H](C)[C@H](CN(C)C(=O)Nc2cccc4ccccc24)OCCCC[C@@H](C)O3)cc1	inactive	inactive	inactive
O=C(C[C@@H]1C[C@H]2c3cc(NS(=O)(=O)c4ccc(F)cc4)ccc3O[C@H]2[C@@H](CO)O1)NCc1cccnc1	inactive	inactive	inactive
C[C@H]1CN([C@@H](C)CO)C(=O)Cc2cc(N(C)C)ccc2O[C@@H]1CN(C)C(=O)Nc1ccc2c(c1)OCO2	inactive	inactive	inactive
CC(C)[Si]1(C(C)C)O[C@@H](c2ccccc2)c2cc(-c3ccc(-c4ccc(Cl)c(Cl)c4)o3)nc(CCc3ccccc3)c21	inactive	inactive	inactive
CN1CCN(C(=O)C[C@@H]2CC[C@H]3[C@@H](COC[C@H](O)CN3C(=O)C3CC3)O2)CC1	inactive	inactive	inactive
Cc1noc(C)c1NC(=O)N(C)C[C@@H]1Oc2ncc(Br)cc2C(=O)N([C@@H](C)CO)C[C@H]1C	inactive	inactive	inactive
CCCNC(=O)C[C@H]1CC[C@@H]2[C@H](COc3ccc(NC(=O)c4ccc5c(c4)OCO5)cc3C(=O)N2C)O1	inactive	inactive	inactive
C[C@H](CO)N1C[C@H](C)[C@H](CN(C)S(=O)(=O)c2cccs2)Oc2ncc(C#Cc3ccccc3)cc2C1=O	inactive	inactive	inactive
CC(=O)O[C@H]1C[C@@H](OC(C)=O)C(C)(C)[C@@H]2C[C@@H](OC(C)=O)[C@@]3(C)C4=CC(=O)O[C@@H](c5ccoc5)[C@]4(C)CC[C@@H]3[C@@]12C	inactive	inactive	inactive
C[C@H]1CN([C@@H](C)CO)C(=O)Cc2cc(NC(=O)Nc3ccc(F)cc3)ccc2O[C@@H]1CN(C)Cc1ccc(Cl)c(Cl)c1	active	active	inactive
O=C(O)CNC(=O)c1cc2ccccc2[nH]1	inactive	inactive	inactive
C[C@@H]1CN([C@H](C)CO)C(=O)c2cc(NC(=O)C3CC3)ccc2O[C@H]1CN(C)Cc1ccc2c(c1)OCO2	inactive	inactive	inactive
Cc1noc(C)c1NC(=O)N(C)C[C@@H]1Oc2ccc(NC(=O)C3CC3)cc2C(=O)N([C@@H](C)CO)C[C@@H]1C	inactive	inactive	inactive
C[C@H]1CN([C@@H](C)CO)C(=O)Cc2cc(NS(=O)(=O)c3ccc(Cl)cc3)ccc2O[C@H]1CN(C)Cc1ccc(C(F)(F)F)cc1	active	active	inactive
CS(=O)(=O)Nc1ccc2c(c1)C(=O)NC2=O	inactive	inactive	inactive
CN1CCc2c(c3ccccc3n2Cc2ccccc2)C1	inactive	active	inactive
CC1CCC2(C(=O)O)CCC3(C)C(=CCC4C5(C)CCC(O)C(C)(C)C5CCC43C)C2C1C (stereo unspecified)	active	active	inactive

Structure (SMILES)	cytotoxicity call (HSkMC)	cytotoxicity call (HepG2)	growth inhibition call (S. aureus RN4220)
C[C@H](CO)N1C[C@H](C)[C@@H](CN(C)S(=O)(=O)c2ccccc2)Oc2ccc(NS(=O)(=O)c3ccc(F)cc3)cc2C1=O	inactive	inactive	inactive
C[C@H]1CN([C@@H](C)CO)C(=O)CCCn2cc(nn2)CO[C@H]1CN(C)C(=O)Nc1ccc(C(F)(F)F)cc1	inactive	inactive	inactive
CC(C)NC(=O)Nc1cccc2c1O[C@@H](CN(C)Cc1ccc(-c3ccccc3)cc1)[C@@H](C)CN([C@H](C)CO)C2=O	inactive	inactive	inactive
CC(C)NC(=O)Nc1cccc2c1O[C@H](CN(C)S(=O)(=O)c1ccccc1)[C@@H](C)CN([C@H](C)CO)C2=O	inactive	inactive	inactive
C[C@@H]1CN([C@@H](C)CO)C(=O)Cc2cc(NS(=O)(=O)c3cccs3)ccc2O[C@@H]1CN(C)S(C)(=O)=O	inactive	inactive	inactive
Cn1c(=O)[nH]c(=O)c2c1ncn2CCNCc1ccco1	inactive	inactive	inactive
C[C@@H]1CN([C@@H](C)CO)C(=O)c2cccc(NS(=O)(=O)c3cn(C)cn3)c2O[C@H]1CN(C)Cc1ccc(C(=O)Nc2ccccc2N)cc1	inactive	inactive	inactive
COC[C@H]1CN(CC2CC2)Cc2nnn(C)c21	inactive	inactive	inactive
C[C@@H]1CN([C@@H](C)CO)C(=O)c2cccc(NC(=O)Nc3cccc4ccccc34)c2O[C@H]1CN(C)S(=O)(=O)c1cccc(F)c1	inactive	inactive	inactive
C[C@@H]1COC(=O)[C@@H](NC(=O)OCC2c3ccccc3-c3ccccc32)CC=CC[C@H](CC(=O)NCCO)C(=O)N1	inactive	inactive	inactive
O=C(CN1CCOCC1)NCC[C@@H]1CC[C@H](NC(=O)c2ccc3c(c2)OCO3)[C@@H](CO)O1	inactive	inactive	inactive
C[C@H](CO)N1C[C@H](C)[C@@H](CN(C)Cc2ccccc2)Oc2ccc(NC(=O)CCN3CCOCC3)cc2C1=O	inactive	inactive	inactive
C[C@@H]1CCCCO[C@H](CN(C)C)[C@@H](C)CN([C@H](C)CO)C(=O)c2cc(NC(=O)CCCN(C)C)ccc2O1	inactive	inactive	inactive
CC(=O)N1CCOC[C@@]2(C1)CN(S(C)(=O)=O)CCO2	inactive	inactive	inactive
COc1ccc(S(=O)(=O)N(C)C[C@H]2Oc3ccc(NC(=O)NC(C)C)cc3CC(=O)N([C@@H](C)CO)C[C@@H]2C)cc1	inactive	inactive	inactive
Cc1cccc(OC[C@H](O)Cn2c(N3CCN(C)CC3)nc3c2c(=O)n(C)c(=O)n3C)c1	inactive	inactive	inactive
C[C@@H]1CCCCO[C@@H](CN(C)S(C)(=O)=O)[C@H](C)CN([C@@H](C)CO)C(=O)c2cc(NC(=O)c3ccncc3)ccc2O1	inactive	inactive	inactive
C[C@@H]1CN([C@H](C)CO)C(=O)c2cc(NC(=O)Nc3ccc(F)cc3)ccc2O[C@H]1CN(C)S(C)(=O)=O	inactive	inactive	inactive
CO[C@@H]1CN(C)C(=O)c2cc(NC(C)=O)ccc2OC[C@H](C)N(S(=O)(=O)c2cn(C)cn2)C[C@H]1C	inactive	inactive	inactive

— the antibiotic and cytotoxicity screens of Wong et al. (2023)
